# Experimental data reported in the supplement of paper PMC8728848.
# Some of the results follow.
# B1: LSectin (Mus musculus), Q8BNX1 (protein)
# chain: MNTGEYNKLGSAIEEVSRGQLGRWECYKQRLFFLVLALLVATVLWALILSTLLSSASSKLRVLLSHQDLLRTNASEQKMTLSSLKDDIGACRNCCSVTKAQLQTTLAEFKDIQAKLMEQESILKELQERVTQDLAKASRDRENIRSELFQALEAVKRQNSSCEQCPPSWLPFQGSCYYFSETQATWDTAQSYCGGQGAHLVIVRGLNEQGFLSQHTRGRGYWLGLRAVRHLNKIQGYRWVDGASLNFSHWNSGEPNDSRGHEDCIMMLHSGLWNDAPCTNERDGWICEKRSSCY
# What was measured:
# Assay in all cases: glycan array binding signal (z-score within array); higher = stronger binding
# Conditions in all cases: glycan notation: IUPAC condensed, linker removed
# [1] = target: Fuc(a1-2)Gal(b1-4)[Fuc(a1-3)]GlcNAc(b1-2)[Fuc(a1-2)Gal(b1-4)[Fuc(a1-3)]GlcNAc(b1-4)]Man(a1-3)[Fuc(a1-2)Gal(b1-4)[Fuc(a1-3)]GlcNAc(b1-2)Man(a1-6)]Man(b1-4)GlcNAc(b1-4)GlcNAc
# How it was run: (§1)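 Glycan array data came from 3228 arrays in the Consortium for Functional Glycomics database, and only arrays with an available protein sequence were kept. Glycan names were put into IUPAC-condensed notation, and columns mapping to the same glycan were averaged. The binding signal is a within-array Z-score, averaged across arrays of one protein sequence run at different concentrations or buffers and across linkers. A negative Z-score can be read as non-binding.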
# [2] = target: Fuc(a1-2)Gal(b1-4)[Fuc(a1-3)]GlcNAc(b1-3)Gal(b1-4)[Fuc(a1-3)]GlcNAc
# How it was run: as §1
# [3] = target: Fuc(a1-2)Gal(b1-4)[Fuc(a1-3)]GlcNAc(b1-3)Gal(b1-4)[Fuc(a1-3)]GlcNAc(b1-3)Gal(b1-4)[Fuc(a1-3)]GlcNAc
# How it was run: as §1
# [4] = target: Fuc(a1-2)Gal(b1-4)[Fuc(a1-3)]GlcNAc(b1-3)GalNAc
# How it was run: as §1
# [5] = target: Fuc(a1-2)Gal6S(b1-4)Glc
# How it was run: as §1
# [6] = target: Fuc(a1-2)Gal6S(b1-4)Glc6S
# How it was run: as §1
# [7] = target: Fuc(a1-2)Gal6S(b1-4)GlcNAc
# How it was run: as §1
# [8] = target: Fuc(a1-2)[Gal(a1-3)]Gal
# How it was run: as §1
# [9] = target: Fuc(a1-2)[Gal(a1-3)]Gal(b1-3)GlcNAc
# How it was run: as §1
# [10] = target: Fuc(a1-2)[Gal(a1-3)]Gal(b1-3)GlcNAc(b1-2)Man(a1-3)[Fuc(a1-2)[Gal(a1-3)]Gal(b1-3)GlcNAc(b1-2)Man(a1-6)]Man(b1-4)GlcNAc(b1-4)GlcNAc
# How it was run: as §1
# [11] = target: Fuc(a1-2)[Gal(a1-3)]Gal(b1-3)GlcNAc(b1-3)GalNAc
# How it was run: as §1
# [12] = target: Fuc(a1-2)[Gal(a1-3)]Gal(b1-4)Glc
# How it was run: as §1
# [13] = target: Fuc(a1-2)[Gal(a1-3)]Gal(b1-4)GlcNAc
# How it was run: as §1
# [14] = target: Fuc(a1-2)[Gal(a1-3)]Gal(b1-4)GlcNAc(b1-2)Man(a1-3)[Fuc(a1-2)[Gal(a1-3)]Gal(b1-4)GlcNAc(b1-2)Man(a1-6)]Man(b1-4)GlcNAc(b1-4)GlcNAc
# How it was run: as §1
# [15] = target: Fuc(a1-2)[Gal(a1-3)]Gal(b1-4)GlcNAc(b1-2)Man(a1-3)[Fuc(a1-2)[Gal(a1-3)]Gal(b1-4)GlcNAc(b1-2)Man(a1-6)]Man(b1-4)GlcNAc(b1-4)[Fuc(a1-6)]GlcNAc
# How it was run: as §1
# [16] = target: Fuc(a1-2)[Gal(a1-3)]Gal(b1-4)GlcNAc(b1-3)GalNAc
# How it was run: as §1
# [17] = target: Fuc(a1-2)[Gal(a1-3)]Gal(b1-4)[Fuc(a1-3)]Glc
# How it was run: as §1
# [18] = target: Fuc(a1-2)[Gal(a1-3)]Gal(b1-4)[Fuc(a1-3)]GlcNAc
# How it was run: as §1
# [19] = target: Fuc(a1-2)[Gal(a1-3)]Gal(b1-4)[Fuc(a1-3)]GlcNAc(b1-3)GalNAc
# How it was run: as §1
# [20] = target: Fuc(a1-2)[Gal(a1-4)]Gal(b1-4)GlcNAc
# How it was run: as §1
# [21] = target: Fuc(a1-2)[GalNAc(a1-3)]Gal
# How it was run: as §1
# [22] = target: Fuc(a1-2)[GalNAc(a1-3)]Gal(b1-3)GalNAc(a1-3)[Fuc(a1-2)]Gal(b1-4)GlcNAc
# How it was run: as §1
# [23] = target: Fuc(a1-2)[GalNAc(a1-3)]Gal(b1-3)GlcNAc
# How it was run: as §1
# [24] = target: Fuc(a1-2)[GalNAc(a1-3)]Gal(b1-3)GlcNAc(b1-2)Man(a1-3)[Fuc(a1-2)[GalNAc(a1-3)]Gal(b1-3)GlcNAc(b1-2)Man(a1-6)]Man(b1-4)GlcNAc(b1-4)GlcNAc
# How it was run: as §1
# [25] = target: Fuc(a1-2)[GalNAc(a1-3)]Gal(b1-3)GlcNAc(b1-3)GalNAc
# How it was run: as §1
# [26] = target: Fuc(a1-2)[GalNAc(a1-3)]Gal(b1-4)Glc
# How it was run: as §1
# [27] = target: Fuc(a1-2)[GalNAc(a1-3)]Gal(b1-4)GlcNAc
# How it was run: as §1
# [28] = target: Fuc(a1-2)[GalNAc(a1-3)]Gal(b1-4)GlcNAc(b1-2)Man(a1-3)[Fuc(a1-2)[GalNAc(a1-3)]Gal(b1-4)GlcNAc(b1-2)Man(a1-6)]Man(b1-4)GlcNAc(b1-4)GlcNAc
# How it was run: as §1
# [29] = target: Fuc(a1-2)[GalNAc(a1-3)]Gal(b1-4)GlcNAc(b1-3)Gal(b1-4)GlcNAc
# How it was run: as §1
# [30] = target: Fuc(a1-2)[GalNAc(a1-3)]Gal(b1-4)GlcNAc(b1-3)Gal(b1-4)GlcNAc(b1-3)Gal(b1-4)GlcNAc
# How it was run: as §1
binder,measurement,setting,value
B1,glycan array binding signal (z-score),[1],0.069
same,glycan array binding signal (z-score),[2],-0.012
same,glycan array binding signal (z-score),[3],0.067
same,glycan array binding signal (z-score),[4],-0.154
same,glycan array binding signal (z-score),[5],-0.139
same,glycan array binding signal (z-score),[6],-0.129
same,glycan array binding signal (z-score),[7],-0.139
same,glycan array binding signal (z-score),[8],-0.145
same,glycan array binding signal (z-score),[9],-0.148
same,glycan array binding signal (z-score),[10],-0.184
same,glycan array binding signal (z-score),[11],-0.188
same,glycan array binding signal (z-score),[12],-0.168
same,glycan array binding signal (z-score),[13],-0.164
same,glycan array binding signal (z-score),[14],-0.191
same,glycan array binding signal (z-score),[15],-0.178
same,glycan array binding signal (z-score),[16],-0.187
same,glycan array binding signal (z-score),[17],-0.124
same,glycan array binding signal (z-score),[18],-0.127
same,glycan array binding signal (z-score),[19],-0.183
same,glycan array binding signal (z-score),[20],-0.057
same,glycan array binding signal (z-score),[21],-0.156
same,glycan array binding signal (z-score),[22],-0.189
same,glycan array binding signal (z-score),[23],-0.162
same,glycan array binding signal (z-score),[24],-0.189
same,glycan array binding signal (z-score),[25],-0.179
same,glycan array binding signal (z-score),[26],-0.174
same,glycan array binding signal (z-score),[27],-0.176
same,glycan array binding signal (z-score),[28],-0.18
same,glycan array binding signal (z-score),[29],-0.185
same,glycan array binding signal (z-score),[30],-0.183
